Legend:
[1] = tested on: patients with relapsed/refractory multiple myeloma (KRRMM); assay: Phase IIb study: safety (adverse events, infusion-related reactions, discontinuations); format: in vivo
Source text: (§1) Phase IIb, multi-centre, open label sequential cohort study evaluating kappamab (KM) alone (KM, Stage 1) and then KM in combination with lenalidomide (LEN) and dexamethasone (DEX) (KM-Rd, Stage 2) in relapsed/refractory multiple myeloma (KRRMM). Key inclusion criteria for both stages were progressive kappa-restricted multiple myeloma (KMM) (as per International Myeloma Working Group (IMWG) criteria, Kumar et al. 2016), 1-3 prior lines of therapy and no prior LEN exposure.
(§2) Recruitment was planned for 60 patients in total, with an initial intention to treat 30 patients per stage. In Stage 1, patients received KM (10 mg/kg intravenous (IV) infusion) weekly for 8 weeks then every 4 weeks as maintenance. In Stage 2, KM dosing was as per Stage 1 with the addition of LEN, 25 mg Days 1-21 of each 28-day cycle and DEX 40 mg weekly, apart from Cycle 1 which was of 35 days duration (28-day cycles from Cycle 2 onwards) as patients commenced LEN for 21 days and DEX 1 week prior to starting KM (FIG. 1). All patients received anti-viral, thromboembolic prophylaxis and osteolytic prophylaxis as per institutional practice. Treatment continued until unacceptable toxicity, progression, death or withdrawal of consent. Response rates and any adverse events (AEs) were periodically assessed.

[2] = Early investigational study of four dose levels of KM: detection of KM over time; format: in vivo, human; settings: 0.3, 1.0, 3.0, 10 mg/kg; even at the lower doses; assay data up to Day 45
Description: An early investigational study looking at four dose levels of KM (0.3 mg/kg, 1.0 mg/kg, 3.0 mg/kg, 10 mg/kg) was undertaken. […] As such, taken together with the known potential for monoclonal antibody induced immunotoxicity at higher doses, anti-KMA antibodies were considered good candidates for low dosing. Accordingly, the phase IIb study described below was designed based on these low doses.

[3] = tested on: relapsed/refractory multiple myeloma (KRRMM); assay: Phase IIb multi-centre open label sequential cohort study: efficacy (CBR, ORR, PFS, OS, DoR, TTNT, sFLC), with Rd-MRDR matched registry controls; format: in vivo, human
Source text: as §1, §2
The overall response rate (ORR), overall survival (OS) and progression free survival (PFS) of the KM-Rd cohort was compared to a contemporaneous control group of KMM patients who had received Rd for RRMM (Rd-MRDR group), identified via the Australian and New Zealand Myeloma and Related Diseases Registry (MRDR) (www dot mrdr dot net dot au/), who were matched for age, gender and prior lines of therapy (Table 3). […] Both the KM-Rd and MRDR cohorts had 26% of patients with ISS stage 3 at baseline, while the KM cohort had 33% who were ISS stage 3 at baseline. A limitation of this Rd-MRDR dataset was that patients had their disease status recorded only every 4 months, however an advantage of this dataset was that OS was regularly cross referenced with the Australian Institutes of Health and Welfare National Death Index (www dot aihw dot gov dot au/about-our-data/our-data-collections/national-death-index). Importantly, both the KM-Rd cohort and the Rd MRDR controls were treated within the same time period and with similar supportive care and access to both reimbursed pomalidomide and carfilzomib but neither CD38 nor BCMA targeting immune therapies.
The primary endpoint for both Stage 1 and Stage 2 was the clinical benefit rate (CBR). Patients were evaluated every 28 days for both OS and PFS while on study. Comparison of CBR, ORR, OS and PFS between KM-Rd and Rd-MRDR groups was done after the data cut-off. […]
Demographic and baseline characteristics were compared between the KM-Rd cohort and the Rd-MRDR controls using a Chi-squared test. CBR and ORR were estimated as simple percentages and 95% credible intervals (CI) were calculated as specified in the protocol using the pbeta and qbeta functions in R Version 4. A descriptive analysis of each of the time-to-event endpoints (DoR, TTNT, OS and PFS) in each stage used the Kaplan-Meier (product-limit) method to estimate the survival functions, with conventional 95% confidence intervals (CI) for the median survival time, DoR, TTNT, OS and PFS calculated using the Brookmeyer and Crowley method. […]

[4] = treatment emergent non-haematologic AE

B1: KM: humanized form of K121 anti-KMA antibody; VH of SEQ ID NO: 1 and VL of SEQ ID NO: 2 (antibody)
heavy: EVQLQQSGAELVKPGASVKLSCTASGFNIKDTYMHWVKQRPEQGLEWIGRIDPANGNTKYDPKFQGKATIIADTSSNTAYLQLSSLTSEDTAVYYCARGVYHDYDGDYWGQGTTLTVSSASTKGPSVFPLAPSSKSTSGGTAALGCLVKDYFPEPVTVSWNSGALTSGVHTFPAVLQSSGLYSLSSVVTVPSSSLGTQTYICNVNHKPSNTKVDKRV[skipping human IgG1 Fc]
light: DIVMTQSQKFMSTSVGDRVSVTCKASQNVGTNVAWYQQKPGQSPKALIYSTSYRYSGVPDRFTGSGSGTDFTLTISNVQSEDLAEYFCQQYNSYPYTFGGGTKLEIKRTVAAPSVFIFPPSDEQLKSGTASVVCLLNNFYPREAKVQWKVDNALQSGNSQESVTEQDSKDSTYSLSSTLTLSKADYEKHKVYACEVTHQGLSSPVTKSFNRGEC
Question: What does the source list for B1?
Answer: haematologic toxicities ([1]; KM alone (Stage 1)): no haematologic toxicities reported; Grade 1 infusion related reactions, number ([1]; Stage 1): one; Grade 2 infusion related reactions, number ([1]; Stage 1): two; patients who experienced an infusion related reaction (IRR) ([1]; Stage 1, 3/19 patients): 15.8%; KM-related IRRs ([1]; infrequent and low-grade): 14%; Abdominal pain, All grade [1, 4]: 5%; Cellulitis, All grade [1, 4]: 10%; Cellulitis, Grade 3 [1, 4]: 5%; Diarrhoea, All grade [1, 4]: 5%; Fatigue, All grade [1, 4]: 32%; Infusion related reaction, All grade [1, 4]: 16%; Pain, All grade [1, 4]: 5%; Rash, All grade [1, 4]: 16%; URTI, All grade [1, 4]: 5%; KM could still be detected until [2]: ≥ 15 days; discontinuation for progression ([3]; at the study censor date): 84%; Clinical Benefit Rate (CBR) ([3]; minimal response or better per IMWG criteria): 5%; median OS ([3]; overall survival): not reached; Overall Response Rate (ORR) ([3]; partial response or better per IMWG criteria): 5%; median PFS ([3]; progression free survival): 2.0 months
